Test results from the supplement of paper PMC4967469.
IC50 is the fitted dose that halves viability relative to control wells, and lower means more sensitive; fits outside the tested doses are given as limits. The AUC spans the tested range (256-fold, ending at the top dose) of the same fit: 1 means no effect, lower means more sensitive. The top dose, if marked as inferred, comes from the curve model; the source does not state it.

Legend:
Experiment in all cases: Viability of human cancer cell lines after 72 h of drug (GDSC screen)
QL-XII-47 = compound: C=CC(=O)N1CCc2ccc(-n3c(=O)ccc4cnc5ccc(-c6cnn(C)c6)cc5c43)cc21 [QL-XII-47]; details: top dose 10.24 µM; top dose inferred
Protocol: (§1)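 Human cancer cell lines in 384-well plates, medium with 10% serum, drug for 72 h over a 256-fold dose range (nine 2-fold or five 4-fold steps up to the top dose). Adherent lines were fixed and stained with the nucleic acid dye Syto60, suspension lines read with resazurin; signal relative to control wells, capped at 0 and 100%. One two-parameter sigmoid per drug and line, fitted in a mixed model over all curves with the slope shared within a line.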

KIN001-266 = compound: CCN1CCC(n2cc(CNc3cc(Cl)c4ncc(C#N)c(Nc5ccc(F)c(Cl)c5)c4c3)nn2)CC1 [KIN001-266]; details: top dose 20 µM; top dose inferred
Protocol: as §1

BAY 61-3606 = compound: COc1ccc(-c2cc3nccn3c(Nc3ncccc3C(N)=O)n2)cc1OC [BAY 61-3606]; details: top dose 8 µM; top dose inferred
Protocol: as §1

CCT007093 = compound: O=C1/C(=C/c2cccs2)CC/C1=C\c1cccs1 [CCT007093]; details: top dose 6.6 µM; top dose inferred
Protocol: as §1

Cell Line	AUC (QL-XII-47)	IC50 (QL-XII-47) [µM]	AUC (KIN001-266)	IC50 (KIN001-266) [µM]	AUC (BAY 61-3606)	IC50 (BAY 61-3606) [µM]	AUC (CCT007093)	IC50 (CCT007093) [µM]
CFPAC-1 (pancreas, adherent)	0.749	3.75	0.878	> 20	0.854	7.83	0.981	> 6.6
CGTH-W-1 (thyroid, adherent)	0.911	> 10.2	0.872	18.7	0.752	2.63	0.98	> 6.6
CHL-1 (melanoma, adherent)	0.624	1.38	0.873	17.4	0.689	1.63	0.983	> 6.6
CHP-212 (neuroblastoma, adherent)	0.576	1.02	0.985	> 20	0.871	6.58	0.98	> 6.6
CHSA0011 (chondrosarcoma, adherent)	0.851	> 10.2	0.958	> 20	0.923	> 8	0.931	> 6.6
CHSA0108 (chondrosarcoma, adherent)	0.898	> 10.2	0.579	2.13	0.953	> 8	0.984	> 6.6
CHSA8926 (chondrosarcoma, adherent)	0.833	> 10.2	0.98	> 20	0.98	> 8	0.98	> 6.6
CL-11 (large intestine, adherent)	0.968	> 10.2	0.904	> 20	0.987	> 8	0.982	> 6.6
CMK (acute myeloid leukaemia, suspension)	0.424	0.41	0.835	10.4	0.573	0.764	0.972	> 6.6
COLO-205 (large intestine, suspension)	0.911	> 10.2	0.873	18.7	0.735	2.31	0.975	> 6.6
COLO-320-HSR (large intestine, suspension)	0.583	1.05	0.868	14.3	0.79	3.06	0.988	> 6.6
COLO-668 (small cell lung carcinoma, adherent)	0.453	0.476	0.862	17.1	0.882	> 8	0.981	> 6.6
COLO-678 (large intestine, semi-adherent)	0.84	> 10.2	0.903	> 20	0.94	> 8	0.974	> 6.6
COLO-679 (melanoma, adherent)	0.617	1.4	0.969	> 20	0.834	6.11	0.908	> 6.6
COLO-680N (oesophagus, adherent)	0.638	1.66	0.984	> 20	0.887	> 8	0.973	> 6.6
COLO-684 (endometrium, suspension)	0.512	0.693	0.867	> 20	0.798	4.35	0.975	> 6.6
COLO-783 (melanoma, adherent)	0.964	> 10.2	0.983	> 20	0.991	> 8	0.987	> 6.6
COLO-800 (melanoma, adherent)	0.844	7	0.984	> 20	0.973	> 8	0.985	> 6.6
COLO-824 (breast, adherent)	0.865	9.32	0.847	15.1	0.902	> 8	0.986	> 6.6
COLO-829 (melanoma, adherent)	0.866	> 10.2	0.871	> 20	0.979	> 8	0.945	> 6.6

Cell Line	AUC (QL-XII-47)	IC50 (QL-XII-47) [µM]	AUC (KIN001-266)	IC50 (KIN001-266) [µM]	AUC (BAY 61-3606)	IC50 (BAY 61-3606) [µM]	AUC (CCT007093)	IC50 (CCT007093) [µM]
COR-L23 (large cell lung carcinoma, adherent)	0.63	1.45	0.751	6.43	0.748	2.52	0.977	> 6.6
COR-L88 (small cell lung carcinoma, adherent)	0.929	> 10.2	0.832	16.3	0.956	> 8	0.983	> 6.6
COR-L95 (small cell lung carcinoma, adherent)	0.52	0.732	0.935	> 20	0.934	> 8	0.987	> 6.6
COR-L105 (lung adenocarcinoma, adherent)	0.491	0.603	0.749	7.77	0.637	1.31	0.915	> 6.6
COR-L279 (small cell lung carcinoma, suspension)	0.774	3.58	0.966	> 20	0.832	4.35	0.987	> 6.6
CP50-MEL-B (melanoma, adherent)	0.985	> 10.2	0.836	13	0.896	> 8	0.981	> 6.6
CP66-MEL (melanoma, adherent)	0.936	> 10.2	0.941	> 20	0.985	> 8	0.985	> 6.6
CPC-N (small cell lung carcinoma, suspension)	0.929	> 10.2	0.911	> 20	0.891	> 8	0.983	> 6.6
CS1 (bone, adherent)	0.35	0.233	0.813	12.4	0.781	3.74	0.966	> 6.6
CTB-1 (B-cell lymphoma, suspension)	0.667	2.22	0.868	> 20	0.814	6.55	0.979	> 6.6
CTV-1 (acute myeloid leukaemia, suspension)	0.51	0.677	0.86	11.7	0.697	1.57	0.992	> 6.6
CW-2 (large intestine, adherent)	0.874	> 10.2	0.876	> 20	0.989	> 8	0.972	> 6.6
Ca9-22 (head and neck, adherent)	0.767	3.53	0.863	15.2	0.875	6.87	0.986	> 6.6
Ca-Ski (cervix, adherent)	0.433	0.409	0.798	10.9	0.814	5.02	0.983	> 6.6
CaR-1 (large intestine, adherent)	0.931	> 10.2	0.891	> 20	0.96	> 8	0.911	> 6.6
Calu-3 (lung adenocarcinoma, adherent)	0.837	9.49	0.947	> 20	0.915	> 8	0.983	> 6.6
Caov-4 (ovary, adherent)	0.498	0.63	0.813	17.8	0.947	> 8	0.98	> 6.6
Capan-2 (pancreas, adherent)	0.921	> 10.2	0.905	> 20	0.954	> 8	0.983	> 6.6
ChaGo-K-1 (non-small cell lung carcinoma, adherent)	0.647	1.76	0.919	> 20	0.96	> 8	0.893	> 6.6
D-263MG (glioma, adherent)	0.983	> 10.2	0.974	> 20	0.964	> 8	0.966	> 6.6

Cell Line	AUC (QL-XII-47)	IC50 (QL-XII-47) [µM]	AUC (KIN001-266)	IC50 (KIN001-266) [µM]	AUC (BAY 61-3606)	IC50 (BAY 61-3606) [µM]	AUC (CCT007093)	IC50 (CCT007093) [µM]
D-283MED (medulloblastoma, adherent)	0.991	> 10.2	0.948	> 20	0.909	> 8	0.984	> 6.6
D-392MG (glioma, adherent)	0.783	6.07	0.822	17.7	0.958	> 8	0.952	> 6.6
D-502MG (glioma, adherent)	0.832	> 10.2	0.857	> 20	0.943	> 8	0.953	> 6.6
D-542MG (glioma, adherent)	0.933	> 10.2	0.856	> 20	0.984	> 8	0.98	> 6.6
DAN-G (pancreas, adherent)	0.929	> 10.2	0.909	> 20	0.992	> 8	0.991	> 6.6
DBTRG-05MG (glioma, adherent)	0.728	3.22	0.868	> 20	0.846	7.37	0.968	> 6.6
DEL (lymphoid neoplasm, suspension)	0.62	1.27	0.893	14.9	0.787	2.72	0.994	> 6.6
DG-75 (Burkitt lymphoma, suspension)	0.74	3.13	0.868	18.7	0.958	> 8	0.946	> 6.6
DJM-1 (skin, adherent)	0.756	3.48	0.938	> 20	0.989	> 8	0.986	> 6.6
DK-MG (glioma, adherent)	0.557	0.989	0.945	> 20	0.826	> 8	0.926	> 6.6
DMS-53 (small cell lung carcinoma, adherent)	0.987	> 10.2	0.988	> 20	0.987	> 8	0.978	> 6.6
DMS-79 (small cell lung carcinoma, suspension)	0.961	> 10.2	0.975	> 20	0.966	> 8	0.987	> 6.6
DMS-114 (small cell lung carcinoma, adherent)	0.891	> 10.2	0.966	> 20	0.95	> 8	0.98	> 6.6
DND-41 (T-cell leukaemia, suspension)	0.613	1.26	0.79	7.79	0.676	1.45	0.989	> 6.6
DOK (head and neck, adherent)	0.715	3.59	0.953	> 20	0.975	> 8	0.88	> 6.6
DSH1 (bladder, adherent)	0.815	5.32	0.98	> 20	0.988	> 8	0.955	> 6.6
DU-145 (prostate, adherent)	0.741	3.43	0.892	> 20	0.828	5.73	0.979	> 6.6
DU-4475 (breast, suspension)	0.595	1.11	0.882	14.5	0.744	2.12	0.987	> 6.6
Daoy (medulloblastoma, adherent)	0.627	1.39	0.926	> 20	0.92	> 8	0.988	> 6.6
Detroit562 (head and neck, adherent)	0.832	6.17	0.943	> 20	0.792	3.47	0.985	> 6.6
